Among the data in PMC4242493 are binding signal (normalized occupancy) values, retold here.

The list shows a part of the results. The list includes weakly bound sequences.

In this assay the target is MaxL homodimer (UniProt P61244). As to the kind of experiment: universal protein-binding microarray (PBM). The following applies: PBS-based mixture, 10 nM His-tagged protein dimer, 2% milk, 200 ng/uL BSA, 50 ng/uL salmon testes DNA, 0.02% TX-100; detection with Alexa 488 anti-His …; high values mean tight binding; most listed sequences are background and not binding sites; double strand, one strand shown.
UniProt P61244, sequence (P61244 whole entry): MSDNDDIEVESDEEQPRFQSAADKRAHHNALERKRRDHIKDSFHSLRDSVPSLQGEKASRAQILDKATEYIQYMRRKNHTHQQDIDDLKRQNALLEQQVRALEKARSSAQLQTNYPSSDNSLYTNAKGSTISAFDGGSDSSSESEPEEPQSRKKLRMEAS
CGAACGGC: the binding signal (normalized occupancy) amounted to 0.0661.
On to AAGCGAAT, for which the binding signal (normalized occupancy) is 0.0755.
The figure for AGTCTACG is 0.0701; for CTCACCAC it is 0.0796.
As to CGGGCCTC, the binding signal (normalized occupancy) was found to be 0.0653.
The figure for GATTAGCC is 0.0764; for GCTTCACA it is 0.073.
On to ATCCTTGA, for which the binding signal (normalized occupancy) worked out at 0.073.
For GAGCAATA the value was 0.0784; for ATCTCGCG, 0.0769; for AGACCCCA, 0.0814.
The figure for GGAGACAC is 0.0756.
For GCCGACTA the value was 0.0724; for AGATCTCC, 0.0732; for CTGCAAAA, 0.0704.
Consider GCAGGCAA, for which the binding signal (normalized occupancy) is 0.0699.
The figure for AACCGCAA is 0.07; for AAGCAGGT it is 0.0774.
Take GCGGCGCA: the binding signal (normalized occupancy) stood at 0.0702.
The figure for ACAGGAGT is 0.0719.
The figure for AAGCCTTA is 0.0724; for ACACCAGC it is 0.0755; for ACTAGAGC it is 0.0752.
As for CTGCGAGC, the binding signal (normalized occupancy) was found to be 0.0694.
For TATATCAA the value was 0.0837.
As for ATCGGTGA, the binding signal (normalized occupancy) came out at 0.0706.
The figure for ATTCAATC is 0.0766.
For ACGGCTGG the value was 0.0646.
For TTAAAGAA the value was 0.0733.
Consider GGGGTCAC, for which the binding signal (normalized occupancy) was found to be 0.0825.
The figure for CATAACAC is 0.0892; for TCGAGACA it is 0.0762; for CCTCGTGA it is 0.125.
Regarding ACCAGTCT, the binding signal (normalized occupancy) turned out to be 0.0692.
The figure for GAGGGGTA is 0.0806.
The figure for ACGTAGGC is 0.0765; for CGTTACAA it is 0.0789.
In the case of AATCTGAG, the binding signal (normalized occupancy) was determined as 0.0765.
For AGAGCAAT the value was 0.0729; for GGGTAAGA, 0.0831; for GCGGATCA, 0.0718.
For ATAGTAAA the value was 0.077; for AACCCCTT, 0.0746.
With ATTCCGAC, the binding signal (normalized occupancy) came out at 0.0732.
For CCGATGGC the value was 0.0704; for ACTTCCCG, 0.0729; for CCCTAGTC, 0.0735.
The figure for CACTCTAG is 0.0722; for GATATGGC it is 0.0846; for AGGACTAA it is 0.0762.
The figure for CCTCCCCG is 0.0742.
For the sequence ATTCTATG, the binding signal (normalized occupancy) was found to be 0.0827.
On to ACTCTAGA, for which the binding signal (normalized occupancy) worked out at 0.0718.
The figure for GACGCGAA is 0.0735; for ACCTCATC it is 0.0736.
Turning to CGCTACCC, the binding signal (normalized occupancy) came out at 0.0767.
Take ATATCTGG: the binding signal (normalized occupancy) was determined as 0.0756.
The figure for ATCTAAAG is 0.072; for AGATGCCG it is 0.0739; for AGCCTAAC it is 0.0739.
For ATAAAGGA the value was 0.0773.
The figure for GCTAGTCA is 0.0705; for CCCACAAG it is 0.0792; for CTACTTAC it is 0.076.
With ACGGTTTA, the binding signal (normalized occupancy) was 0.0718.
The figure for ACCAATTG is 0.0745; for AAGCACAG it is 0.0699.
For ACGGGCGG the value was 0.0712.
The figure for TACTGGGA is 0.072.
In the case of AAAACGGT, the binding signal (normalized occupancy) was determined as 0.0756.
For GGTATCCA, the binding signal (normalized occupancy) came to 0.0807.
In the case of CAAGAACG, the binding signal (normalized occupancy) came out at 0.0695.
On to GCAAACGA, for which the binding signal (normalized occupancy) was determined as 0.0725.
The figure for TATTCACA is 0.0875; for CATTAAGG it is 0.0729.
For ATCCATGG the value was 0.0797; for CTGTAATA, 0.0777.
For AGGCAAAG the value was 0.0688; for CCTGGAAG, 0.076; for GGAGTATA, 0.0799.
In the case of AATATCGG, the binding signal (normalized occupancy) is 0.0748.
The figure for AATAACAT is 0.0855.
With CGCGCTGA, the binding signal (normalized occupancy) came to 0.0747.
For CTTTAATC the value was 0.0742; for AAACAATA, 0.0731.
The figure for ACCACCGC is 0.0794.
TGAGACCA: the binding signal (normalized occupancy) worked out at 0.0731.
AACTCCCC: the binding signal (normalized occupancy) came out at 0.0752.
For ATAAACGG the value was 0.0764.
The figure for GTCTCGGA is 0.0672; for ATGATCTC it is 0.079.
The figure for AAATTAGC is 0.0696; for GACGTGGA it is 0.087.
As to AATGCGCA, the binding signal (normalized occupancy) is 0.0804.
With AAGGGACT, the binding signal (normalized occupancy) came to 0.0718.
The figure for CAAAGCGC is 0.0693; for TATGGCAA it is 0.0807.
The figure for TGTCTAAA is 0.0764.
The figure for CAACTATA is 0.0783.
Consider CCCTTTTA, for which the binding signal (normalized occupancy) came to 0.0719.
For ATGGTCCA the value was 0.0776; for CGCCACTA, 0.0684; for GCGTACTA, 0.0804.
The figure for GTGGAGGA is 0.08; for ACGACAGA it is 0.0748; for ACTTGCGG it is 0.0726.
The figure for CTCGTCCC is 0.0705.
In the case of CGATTCCA, the binding signal (normalized occupancy) turned out to be 0.0708.
The figure for ATCCACTC is 0.0804.
AACCTCGT: the binding signal (normalized occupancy) was found to be 0.0822.
For CATCATTA the value was 0.0781; for GGTTTCTA, 0.0759; for AGGAATCA, 0.077.
The figure for AACGTTAG is 0.0732; for AACCGTTC it is 0.0699.
For CGGATATA the value was 0.0807; for CTTTGATC, 0.0743; for CTGGCTAA, 0.0714.
Take TAAGATCA: the binding signal (normalized occupancy) is 0.0822.
The figure for ATACCCAC is 0.0843; for AGTACTGG it is 0.0727.
With ACCTGAGA, the binding signal (normalized occupancy) was found to be 0.0771.
For GTAGAACA the value was 0.0767.
For AGTAGAAA, the binding signal (normalized occupancy) was determined as 0.0748.
As for CTTGAAAA, the binding signal (normalized occupancy) was 0.0707.
For GTCCAAAC the value was 0.0666; for CCCCGCCG, 0.0728.
The figure for ACACAAGA is 0.0795.
For GAAGACGC the value was 0.0715.
With TACCTGAA, the binding signal (normalized occupancy) was 0.0719.
For ACAAACCG, the binding signal (normalized occupancy) was 0.0718.
For AGACCCAA the value was 0.0696; for CGTGCTCA, 0.0935; for CTGATCCC, 0.0769.
Regarding CTCTTTTA, the binding signal (normalized occupancy) came to 0.0744.
In the case of ATGGGTTG, the binding signal (normalized occupancy) stood at 0.0793.
For TACGGGGA the value was 0.0726; for CCTCTCCA, 0.0786; for CAAATTTA, 0.0699.
Consider CGTGCCTA, for which the binding signal (normalized occupancy) was 0.0868.
As for AGCCCGAC, the binding signal (normalized occupancy) was 0.0683.
The figure for AGGTCCAG is 0.0699.
For ACTTAAGA the value was 0.0765; for GAGGAACC, 0.0734.
For AGACATCG the value was 0.0727.
GGGATACA: the binding signal (normalized occupancy) amounted to 0.0809.
The figure for AAGACCAA is 0.0715; for CTTGTGAA it is 0.0741; for AAAAGTAG it is 0.0741.
For GTTGTCTA the value was 0.0802.
The figure for CCTTGATC is 0.0765; for CGCAAGCC it is 0.0696; for AAGTCGGG it is 0.0761.
Regarding AATTTAGC, the binding signal (normalized occupancy) is 0.0736.
As for AAATTCTC, the binding signal (normalized occupancy) is 0.0738.
With AAAGGCTC, the binding signal (normalized occupancy) is 0.0692.
For GAGCGTCC the value was 0.0671; for AGACTGTC, 0.075.
The figure for GCGAGTCC is 0.0694; for CAAGTATC it is 0.0768.
The figure for GCTGGGTA is 0.073.
For CCCTCCTA, the binding signal (normalized occupancy) came to 0.0809.
The figure for AGGGAGTC is 0.0743; for GATGCGAC it is 0.0759; for AGTAGAGG it is 0.0739.
The figure for ATCCGTTG is 0.0722; for CACATAAA it is 0.0786.
Turning to ATGCTGTC, the binding signal (normalized occupancy) is 0.0841.
Turning to ATATGCTG, the binding signal (normalized occupancy) worked out at 0.0875.
The figure for CGTACGAG is 0.0761; for AAACTGCT it is 0.0693; for GTCTACCA it is 0.074.
For CTTTCGAA, the binding signal (normalized occupancy) amounted to 0.0667.
For GAAAATTC the value was 0.0728; for AGAGTAGG, 0.0708; for AATATAAT, 0.0785.
For CGTTGTAC the value was 0.0819.
Regarding CCAACAAA, the binding signal (normalized occupancy) is 0.0724.
For AGAAAGTG the value was 0.0763; for AGCTGTAG, 0.075.
For CACCAGAA the value was 0.0736.
CGCGAACG: the binding signal (normalized occupancy) is 0.0677.
The figure for GAAATTGA is 0.0711.
For ATGGCACC the value was 0.0825.
The figure for CATTCGGG is 0.0777; for ACCACTAA it is 0.076.
For the sequence ACATCTCG, the binding signal (normalized occupancy) was found to be 0.0786.
The figure for CGGTATTA is 0.0728; for ACATCGTC it is 0.0753; for ACTCAGTA it is 0.074.
For AAAAGCTT the value was 0.0699; for CACTTGCA, 0.0726.
For ACTAGTAT the value was 0.0807; for GACTCTCC, 0.0731.
Turning to CGAAACTC, the binding signal (normalized occupancy) came out at 0.0685.
For AACACTAA the value was 0.0746; for GAGGTGCA, 0.0745; for ATGTCAAG, 0.0844.
The figure for AATTCACT is 0.0705; for ACGCCCTG it is 0.0733.
The figure for CCACTGAC is 0.0696.
For the sequence AGCTTGTA, the binding signal (normalized occupancy) came to 0.0717.
The figure for CTGATAGC is 0.0726.
For AGCCCGAA the value was 0.0662; for ACAGTTTC, 0.0713.
As to ATAATTTA, the binding signal (normalized occupancy) is 0.0836.
For ACCTTTAC the value was 0.0742.
For CAGACACG the value was 0.0847; for GATGATTA, 0.0816; for CGTACCCC, 0.0786.
For AGTATGTC the value was 0.0803; for ACCAGTAT, 0.0747.
On to ACGTTTCC, for which the binding signal (normalized occupancy) amounted to 0.0762.
For GCTAAGTA the value was 0.0772; for ACGTGACC, 0.103; for AAGTCAAC, 0.0755.
For AGAGCGTC the value was 0.0678.
For ATCTCCAG the value was 0.0696.
For AGGTAAGC, the binding signal (normalized occupancy) is 0.0738.
